Laboratory results published in PubChem BioAssay AID686979 (National Center for Advancing Translational Sciences (NCATS), 2013).
The whole screen tested about 420,000 compounds, of which about 50,000 (12%) were called active. Inconclusive means that the source gave no clear call. Such entries were picked first, then a sample of the others. Calls follow the shape of the dose curve; as a rule, active = well fitted inhibition curve with a large enough effect; inconclusive = small, poorly fitted or top-dose-only effect; inactive = flat fitted curve, though single readings scatter. No potency is given beside an inconclusive call; the fits are too rough.
% is scaled to controls: 0 for no effect and ±100 for the full control effect; potency is read from the fitted curve at half-maximal effect; tags tell the direction and shape of the fitted curve.

Test: qHTS for Inhibitors of human tyrosyl-DNA phosphodiesterase 1 (TDP1): qHTS in cells in presence of CPT; also: nearly all actives have a fitted effect of over 55% in size
Conditions: chicken DT40 Tdp1-/-;hTDP1 cells + 20 nM CPT, ATP luminescence, 48 h; activity change, negative = growth inhibition: at 46.2 µM (top of the series)
Method in brief: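 Chicken DT40 Tdp1-/- cells complemented with human TDP1, 400 cells/well, exposed to compounds plus 20 nM camptothecin for at least 48 h at 37 C; viability read as ATP content by CellTiter-Glo luminescence.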
In the case of CCn1c(SCc2cc(=O)[nH]c3ccccc23)nc2c1c(=O)n(C)c(=O)n2C, the Potency is reported as inconclusive [inhibitor, partial curve, poor fit]. With COC(=O)c1c(-c2ccccc2OC)sc2ccccc12 the Potency was inconclusive [inhibitor, single point]. For O=c1[nH]c(/C=C\c2ccc(O)c(Cl)c2)nc(O)c1[N+](=O)[O-], the “activity change, negative = growth inhibition” value was inactive: 1.07%. For Cc1ccc(C(=O)Nc2ccc(C(=O)N3CCCCC3)cc2)o1, the Potency was inconclusive [inhibitor, partial curve]. For CCOC(=O)NC(=O)/C(C#N)=N\Nc1cccc(Cl)c1, the Potency was active: 23.1 µM. In the case of O=C(C1CCN(c2ncnc3c2sc2cccc(F)c23)CC1)N1CCOCC1, the Potency is reported as active: 11.6 µM. With COc1cc(NC(=O)c2noc3c2CCCC3)c(OC)cc1Cl the activity change, negative = growth inhibition was inconclusive: -24% [inhibitor]. In the case of O=C(N/N=C/c1cn(-c2ccccc2)nc1-c1cc2ccccc2o1)c1c[nH]c2ccccc12, the Potency is reported as inconclusive [inhibitor, single point]. In the case of CCc1ccc(C(O)c2ncc(-c3ccc4ccccc4c3)[nH]2)cc1 (stereo not given), the “activity change, negative = growth inhibition” value is reported as inactive: -9.77%. For O=C(O)c1ccccc1C(=O)NCc1c(Cl)cccc1Sc1ccc(Cl)cc1, the “activity change, negative = growth inhibition” value was inactive: 9.85%. With CCOC(=O)C1CCCN(C2=NC(=O)/C(=C/c3ccc(OC)c(OC)c3)S2)C1 (stereo not given) the Potency was inconclusive [inhibitor, single point]. With Cc1cccc(NC(=O)c2c(C)oc3ncnc(N4CCCCC4)c23)c1C the Potency was inconclusive [inhibitor, single point]. In the case of Nc1ncnc2oc(-c3ccoc3)c(-c3ccco3)c12, the Potency is reported as inconclusive [inhibitor, single point]. For CCn1cc(Cl)c(C(=O)NNC(=O)CCn2nc(C)c([N+](=O)[O-])c2C)n1, the “activity change, negative = growth inhibition” value was inactive: -31.8%. In the case of CCC(=O)N/N=C(\C)CC(=O)Nc1ccc(Cl)cc1, the “activity change, negative = growth inhibition” value is reported as inactive: -30.9%. With CC[C@H](C)[C@H]1CNC(=S)N1CC1CCN(CC2CCC(C)CC2)CC1 (stereo not given in full) the “activity change, negative = growth inhibition” value was inactive: -28.9%. In the case of O=C(CSc1cccc[n+]1[O-])c1cccs1, the Potency is reported as inconclusive [inhibitor, single point]. In the case of Cc1ccc(SCC(=O)Nc2ccc(N3CCOCC3)cc2)c(C)c1, the “activity change, negative = growth inhibition” value is reported as inactive: -0.108%. In the case of COc1ccccc1NC(=O)CCSc1nnc(-c2ccco2)o1, the “activity change, negative = growth inhibition” value is reported as inactive: 6.98%. For Cc1ccc(NC(=O)COC(=O)/C=C/c2ccco2)cc1S(=O)(=O)N(C)C, the “activity change, negative = growth inhibition” value was inactive: -2.11%. In the case of CC(=O)c1cn(-c2ccc(Cl)cc2)c(=O)[nH]c1=O, the “activity change, negative = growth inhibition” value is reported as inactive: 25%. With Cc1ccc(NC(=O)Cn2c(=O)n(Cc3ccccc3)c(=O)c3c2c2cc(C)ccc2n3C)cc1 the Potency was inconclusive [inhibitor, full curve]. In the case of Cc1ccc(-c2nnc(SCC(=O)N/N=C/c3ccc(C)s3)n2-c2ccccc2)cc1, the Potency is reported as inconclusive [inhibitor, single point]. For CC(=O)N1CCCc2cc(S(=O)(=O)N(C)CC(=O)Nc3ccccc3)ccc21, the Potency was inconclusive [inhibitor, single point]. In the case of O=C(NCc1n[nH]c(=S)n1-c1ccc(F)cc1)c1ccc(S(=O)(=O)N2CCCCC2)cc1, the “activity change, negative = growth inhibition” value is reported as inactive: -0.97%. For Cc1ccc(Cl)cc1NS(=O)(=O)c1ccc(N2CCCCS2(=O)=O)cc1, the Potency was inconclusive [inhibitor, partial curve, poor fit]. For COc1cc(NC(=O)C2CCN(S(=O)(=O)c3cccs3)CC2)cc(OC)c1, the Potency was active: 18.4 µM. In the case of CCCNC(=O)c1cc2nc(-c3ccccc3)cc(C(F)(F)F)n2n1, the Potency is reported as inconclusive [inhibitor, single point]. With CCc1ccc(C(O)c2ncc(-c3ccc(C)cc3)[nH]2)cc1 (stereo not given) the Potency was inconclusive [inhibitor, single point]. For CCCN1CCC(N(CCc2ccccc2)Cc2ccccc2)CC1, the “activity change, negative = growth inhibition” value was inactive: -25.4%. With O=C(NCC(O)c1ccc([N+](=O)[O-])cc1)C(c1ccccc1)c1ccccc1 (stereo not given) the Potency was inconclusive [inhibitor, single point]. In the case of Cc1cccc(COC[C@H](CC(C)C)N2CCN(C(=O)c3ccc(C(C)(C)C)cc3)CCC2=O)c1, the Potency is reported as inconclusive [inhibitor, single point]. In the case of Cc1ccc2occ(/C=C/C(=O)c3ccccc3O)c(=O)c2c1, the Potency is reported as active: 18.4 µM. With O=C(Nc1cccc(Cl)c1N1CCCCC1)c1ccc2c(c1)OCCO2 the Potency was inconclusive [inhibitor, single point]. With Cc1nc2nc(SCc3ccccc3)[nH]n2c(=O)c1C the Potency was inconclusive [inhibitor, single point].
